Assay results published in the supplement of paper PMC10369915.
This is one part of the list. Cut-off read from the data, not from the text of the source: active = 3.2 or more and inactive = the rest. Most of these values are background signal.

B1: VGFR3_HUMAN_1068_YA (peptide)
chain: DIAKDPDYVRKGSAR
B2: VGFR3_HUMAN_1363 (peptide)
chain: TFFTDNSYGGGGGGG
B3: VIL1_HUMAN_81 (peptide)
chain: EQGAAAIYTTQMDDF
B4: VINC_HUMAN_1133 (peptide)
chain: WVRKTPWYQGGGGGG
B5: VW5B1_HUMAN_881 (peptide)
chain: EQGSNRRYQVSALHT
B6: WASF3_HUMAN_151_YA (peptide)
chain: KKDGLKFYTDPSAFF
B7: WDR48_HUMAN_28 (peptide)
chain: IRDEVEKYNRNGVNA
B8: XRCC1_HUMAN_515 (peptide)
chain: EENGEDPYAGSTDEN
B9: YPEL4_HUMAN_98 (peptide)
chain: KTTLGWKYEQAFETS
B10: ZAP70_HUMAN_319_YA (peptide)
chain: TSVAESPYSDPEELK
B11: ZAP70_HUMAN_492 (peptide)
chain: ALGADDSYYTARSAG
B12: BCR_HUMAN_283_YA (peptide)
chain: AQPAQSIYVGGMMEG
B13: ZC3H4_HUMAN_158 (peptide)
chain: GHRKYREYSPPYAPS
B14: ZMYM2_HUMAN_683 (peptide)
chain: CIVTYCEYCQEEKTL
B15: ZMYM2_HUMAN_683_YA (peptide)
chain: CIVTACEYCQEEKTL
B16: ZN318_HUMAN_205 (peptide)
chain: CSRGLERYISQEEGP
B17: ZO1_HUMAN_1140 (peptide)
chain: EEPAPLSYDSRPRYE
B18: ZO1_HUMAN_1140_YA (peptide)
chain: EEPAPLSYDSRPRAE

What follows are binders tested against SHP2 C-SH2 domain E139D (assay: enrichment score (SH2-bound / input frequency) (ratio); bacterial display of known human phosphotyrosine sites (pTyr-Var adds point mutants) read by sequencing; higher = stronger binding; tyrosines were phosphorylated by kinases first). Conditions: peptide library: Human pTyr.
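Note: displayed peptides selected on beads carrying the immobilized SH2 domain, with library peptides lacking any tyrosine serving as negative controls.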

Enrichment score, inactive:
B1 0.954, B2 0.707, B3 0.664, B4 2.87, B5 0.995, B6 0.977, B7 0.772, B8 1.21, B9 0.811, B10 0.955, B11 0.649, B12 0.749, B13 0.945, B14 1.79, B15 1.48, B16 0.974, B17 0.677, B18 0.732

Each binder was assayed against SHP2 C-SH2 domain wild-type in the same assay as above. Conditions: peptide library: Human pTyr.

Enrichment score, inactive:
B1 0.716, B2 0.644, B3 0.538, B4 2.66, B5 0.748, B6 0.943, B7 0.639, B8 1.12, B9 0.807, B10 0.9, B11 0.383, B12 0.665, B13 0.762, B14 2.59, B15 1.43, B16 1.12, B17 0.556, B18 0.588

What follows are binders tested against SHP2 N-SH2 domain L43F in the same assay as above. Conditions: peptide library: Human pTyr.

Enrichment score, inactive:
B1 0.86, B2 0.683, B3 0.691, B4 2.5, B5 0.643, B6 1.04, B7 0.677, B8 0.983, B9 0.856, B10 0.875, B11 0.633, B12 0.872, B13 0.769, B14 1.68, B15 1.1, B16 1.06, B17 0.679, B18 0.84

These binders were tested against SHP2 N-SH2 domain T42A in the same assay as above. Conditions: peptide library: Human pTyr.

Enrichment score, inactive:
B1 0.702, B2 0.542, B3 0.697, B4 2.89, B5 0.752, B6 1.04, B7 0.65, B8 1.41, B9 0.646, B10 0.931, B11 0.526, B12 0.638, B13 0.907, B14 1.99, B15 1.46, B16 1.14, B17 0.647, B18 0.684

Each binder was assayed against SHP2 N-SH2 domain T52S in the same assay as above. Conditions: peptide library: Human pTyr.

Enrichment score, inactive:
B1 0.894, B2 0.605, B3 0.644, B4 2.69, B5 0.931, B6 0.984, B7 0.771, B8 1.03, B9 0.936, B10 0.784, B11 0.584, B12 0.765, B13 1.06, B14 1.82, B15 1.24, B16 1.16, B17 0.574, B18 0.772

The binders below were run against SHP2 N-SH2 domain wild-type in the same assay as above. Conditions: peptide library: Human pTyr.

Enrichment score, inactive:
B1 0.844, B2 0.628, B3 0.586, B5 0.871, B6 1.23, B7 0.714, B8 1.22, B9 0.755, B10 0.868, B11 0.468, B12 0.761, B13 1.2, B14 2.71, B15 1.44, B16 1.16, B17 0.589, B18 0.719

Enrichment score, active:
B4 3.56
